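In this assay, cells in 96-well plates receive the compound at five concentrations for 48 hours. Endpoints are linearly interpolated between the surrounding concentrations. At the GI50, growth is halved.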 The source made the active and inactive calls. Cut-off read from the data, not from the text of the source: active = GI50 up to about 1.1 µM and inactive = higher.
What was measured:
Test in all cases: NCI-60 cell line screen, 48 h
SK-MEL-2 = tested on: SK-MEL-2
HT-29 = tested on: HT-29
HCT-116 = tested on: HCT-116
U-251 = tested on: U-251
EKVX = tested on: EKVX
UACC-257 = tested on: UACC-257
UACC-62 = tested on: UACC-62
OVCAR-8 = tested on: OVCAR-8
NCI-H460 = tested on: NCI-H460
OVCAR-5 = tested on: OVCAR-5
SK-MEL-5 = tested on: SK-MEL-5
A498 = tested on: A498
NCI-H226 = tested on: NCI-H226
CAKI-1 = tested on: CAKI-1
SW-620 = tested on: SW-620
MDA-MB-435 = tested on: MDA-MB-435
DMS-273 = tested on: DMS-273
MCF7 = tested on: MCF7
ACHN = tested on: ACHN
SF-268 = tested on: SF-268
SK-MEL-28 = tested on: SK-MEL-28
HOP-62 = tested on: HOP-62
M19-MEL = tested on: M19-MEL
NCI-H522 = tested on: NCI-H522
HOP-92 = tested on: HOP-92
KM-20L2 = tested on: KM-20L2
DMS-114 = tested on: DMS-114
OVCAR-4 = tested on: OVCAR-4
MDA-N = tested on: MDA-N
HL-60 = tested on: HL-60
KM12 = tested on: KM12
MDA-MB-231 = tested on: MDA-MB-231
786-0 = tested on: 786-0
UO-31 = tested on: UO-31
T47D = tested on: T47D
CCRF-CEM = tested on: CCRF-CEM
PC-3 = tested on: PC-3
SF-539 = tested on: SF-539
SK-OV-3 = tested on: SK-OV-3
SNB-75 = tested on: SNB-75
RXF 393 = tested on: RXF 393
HCT-15 = tested on: HCT-15
RPMI-8226 = tested on: RPMI-8226
MOLT-4 = tested on: MOLT-4
SF-295 = tested on: SF-295
OVCAR-3 = tested on: OVCAR-3
Hs-578T = tested on: Hs-578T
LXFL 529 = tested on: LXFL 529
NCI-H23 = tested on: NCI-H23
HCC 2998 = tested on: HCC 2998
A549 = tested on: A549
NCI/ADR-RES = tested on: NCI/ADR-RES
COLO 205 = tested on: COLO 205
SN12C = tested on: SN12C
HOP-18 = tested on: HOP-18
IGROV-1 = tested on: IGROV-1
K562 = tested on: K562
BT-549 = tested on: BT-549
DU-145 = tested on: DU-145
LOX IMVI = tested on: LOX IMVI
M14 = tested on: M14
TK-10 = tested on: TK-10
SR = tested on: SR
SNB-19 = tested on: SNB-19
Malme-3M = tested on: Malme-3M

Compound: CN[C@H]1CCc2cc(OC)c(OC)c(OC)c2-c2ccc(SC)c(=O)cc21
- GI50 (SK-MEL-2): active: < 10 nM
- GI50 (HT-29): active: < 10 nM
- GI50 (HCT-116): active: < 10 nM
- GI50 (U-251): active: < 10 nM
- GI50 (EKVX): active: 63.1 nM
- GI50 (UACC-257): active: 855 nM
- GI50 (UACC-62): active: < 10 nM
- GI50 (OVCAR-8): active: < 10 nM
- GI50 (NCI-H460): active: < 10 nM
- GI50 (OVCAR-5): active: 265 nM
- GI50 (SK-MEL-5): active: < 10 nM
- GI50 (A498): active: < 10 nM
- GI50 (NCI-H226): active: 92.5 nM
- GI50 (CAKI-1): active: 10.5 nM
- GI50 (SW-620): active: < 10 nM
- GI50 (MDA-MB-435): active: < 10 nM
- GI50 (DMS-273): active: < 10 nM
- GI50 (MCF7): active: < 10 nM
- GI50 (ACHN): active: 10.1 nM
- GI50 (SF-268): active: 13.3 nM
- GI50 (SK-MEL-28): active: 33.3 nM
- GI50 (HOP-62): active: 11.9 nM
- GI50 (M19-MEL): active: < 10 nM
- GI50 (NCI-H522): active: < 10 nM
- GI50 (HOP-92): active: 31.6 nM
- GI50 (KM-20L2): active: 17.8 nM
- GI50 (DMS-114): active: < 10 nM
- GI50 (OVCAR-4): inactive: 8450 nM
- GI50 (MDA-N): active: < 10 nM
- GI50 (HL-60): active: < 10 nM
- GI50 (KM12): active: < 10 nM
- GI50 (MDA-MB-231): active: < 10 nM
- GI50 (786-0): active: 11.8 nM
- GI50 (UO-31): active: 46.2 nM
- GI50 (T47D): inactive: 51900 nM
- GI50 (CCRF-CEM): active: < 10 nM
- GI50 (PC-3): active: < 10 nM
- GI50 (SF-539): active: < 10 nM
- GI50 (SK-OV-3): active: 22.4 nM
- GI50 (SNB-75): active: < 10 nM
- GI50 (RXF 393): active: < 10 nM
- GI50 (HCT-15): < 10 nM
- GI50 (RPMI-8226): active: < 10 nM
- GI50 (MOLT-4): active: < 10 nM
- GI50 (SF-295): active: < 10 nM
- GI50 (OVCAR-3): active: < 10 nM
- GI50 (Hs-578T): active: < 10 nM
- GI50 (LXFL 529): active: < 10 nM
- GI50 (NCI-H23): active: < 10 nM
- GI50 (HCC 2998): active: < 10 nM
- GI50 (A549): active: < 10 nM
- GI50 (NCI/ADR-RES): active: 15.4 nM
- GI50 (COLO 205): active: < 10 nM
- GI50 (SN12C): active: 30.2 nM
- GI50 (HOP-18): inactive: > 100000 nM
- GI50 (IGROV-1): active: < 10 nM
- GI50 (K562): active: < 10 nM
- GI50 (BT-549): active: < 10 nM
- GI50 (DU-145): active: < 10 nM
- GI50 (LOX IMVI): active: 10.5 nM
- GI50 (M14): active: < 10 nM
- GI50 (TK-10): inactive: 1160 nM
- GI50 (SR): active: < 10 nM
- GI50 (SNB-19): active: 49.4 nM
- GI50 (Malme-3M): active: 42.9 nM
